Measured values: publication PMC12820563, “FoxP3 forms a head-to-head dimer in vivo and stabilizes its multimerization on adjacent microsatellites”
This is one part of the list.

Each sequence was assayed against T1, MBP-FoxP1dN (Mus musculus, UniProt P58462 326-579) (assay: PD-seq (MBP pull-down with sequencing); 20 mM Tris-HCl pH 7.5, 100 mM NaCl, 1.5 mM MgCl2, 0.4 uM protein, 0.1 uM dsDNA library, 30 min, room temperature, amylose pull-down; high values mean tight binding). Conditions: protein: recombinant; tags: His6-MBP; chain copies: 2; dsDNA, one strand shown.
T1 sequence: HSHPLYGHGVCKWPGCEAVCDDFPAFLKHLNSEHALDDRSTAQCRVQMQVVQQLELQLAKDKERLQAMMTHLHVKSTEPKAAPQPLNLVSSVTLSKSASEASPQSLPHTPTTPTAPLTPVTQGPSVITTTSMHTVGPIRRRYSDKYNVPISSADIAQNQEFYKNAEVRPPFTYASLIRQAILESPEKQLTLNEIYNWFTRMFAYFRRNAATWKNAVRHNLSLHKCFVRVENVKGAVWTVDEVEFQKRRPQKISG
Summary of the method: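 Mouse FoxP3 or FoxP1 fragment lacking the N-terminus, His6-MBP-tagged and expressed in E. coli, was incubated at 0.4 µM with 0.1 µM Klenow-filled degenerate double-stranded DNA library for 30 min at room temperature in Tris pH 7.5 buffer with NaCl and MgCl2. Complexes captured on amylose resin were washed three times and their DNA sequenced on Illumina. Binding is reads-per-million enrichment of pull-down over input, replicates pooled.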

| Sequence | binding signal |
| --- | --- |
| GATGATTGTTCTCCCAGCTGATGAATTTTAGGTATCGAGTAAACAAATTTTCCTAATCTTTCTGTTCAAGCGCCATCTAC | 0.978 RPM ratio (pull-down/input) |
| GATGATTGTTCTCCCAGCTGATGAATTTGTGGAGTCGAGTAAACAAATTTTCCTAATCTTTCTGTTCAAGCGCCATCTAC | 1 RPM ratio (pull-down/input) |
| GATGATTGTTCTCCCAGCTGATGAATTGACCGGGTCGAGTAAACAAATTTTCCTAATCTTTCTGTTCAAGCGCCATCTAC | 0.833 RPM ratio (pull-down/input) |
| GATGATTGTTCTCCCAGCTGATGAATTGTACCGGTCGAGTAAACAAATTTTCCTAATCTTTCTGTTCAAGCGCCATCTAC | 0.886 RPM ratio (pull-down/input) |
| GATGATTGTTCTCCCAGCTGATGAATTCTGGAGCTCGAGTAAACAAATTTTCCTAATCTTTCTGTTCAAGCGCCATCTAC | 0.732 RPM ratio (pull-down/input) |
| GATGATTGTTCTCCCAGCTGATGAATTAATCGACTCGAGTAAACAAATTTTCCTAATCTTTCTGTTCAAGCGCCATCTAC | 0.641 RPM ratio (pull-down/input) |
| GATGATTGTTCTCCCAGCTGATGAATTGGGAACTTCGAGTAAACAAATTTTCCTAATCTTTCTGTTCAAGCGCCATCTAC | 0.868 RPM ratio (pull-down/input) |
| GATGATTGTTCTCCCAGCTGATGAATTCTGCGCGTCGAGTAAACAAATTTTCCTAATCTTTCTGTTCAAGCGCCATCTAC | 0.978 RPM ratio (pull-down/input) |
| GATGATTGTTCTCCCAGCTGATGAATTATGTAATTCGAGTAAACAAATTTTCCTAATCTTTCTGTTCAAGCGCCATCTAC | 1.31 RPM ratio (pull-down/input) |
| GATGATTGTTCTCCCAGCTGATGAATTTCGATCATCGAGTAAACAAATTTTCCTAATCTTTCTGTTCAAGCGCCATCTAC | 0.943 RPM ratio (pull-down/input) |
| GATGATTGTTCTCCCAGCTGATGAATTGGTTAGATCGAGTAAACAAATTTTCCTAATCTTTCTGTTCAAGCGCCATCTAC | 0.911 RPM ratio (pull-down/input) |
| GATGATTGTTCTCCCAGCTGATGAATTGTATTTCTCGAGTAAACAAATTTTCCTAATCTTTCTGTTCAAGCGCCATCTAC | 1.35 RPM ratio (pull-down/input) |
| GATGATTGTTCTCCCAGCTGATGAATTATCGATATCGAGTAAACAAATTTTCCTAATCTTTCTGTTCAAGCGCCATCTAC | 1.08 RPM ratio (pull-down/input) |
| GATGATTGTTCTCCCAGCTGATGAATTCATCTAATCGAGTAAACAAATTTTCCTAATCTTTCTGTTCAAGCGCCATCTAC | 1.02 RPM ratio (pull-down/input) |
| GATGATTGTTCTCCCAGCTGATGAATTCAACATGTCGAGTAAACAAATTTTCCTAATCTTTCTGTTCAAGCGCCATCTAC | 0.938 RPM ratio (pull-down/input) |
| GATGATTGTTCTCCCAGCTGATGAATTATAGCGCTCGAGTAAACAAATTTTCCTAATCTTTCTGTTCAAGCGCCATCTAC | 0.994 RPM ratio (pull-down/input) |

| Sequence | binding signal |
| --- | --- |
| GATGATTGTTCTCCCAGCTGATGAATTATCGGGCTCGAGTAAACAAATTTTCCTAATCTTTCTGTTCAAGCGCCATCTAC | 0.828 RPM ratio (pull-down/input) |
| GATGATTGTTCTCCCAGCTGATGAATTAGAAGCGTCGAGTAAACAAATTTTCCTAATCTTTCTGTTCAAGCGCCATCTAC | 0.983 RPM ratio (pull-down/input) |
| GATGATTGTTCTCCCAGCTGATGAATTTAAGGGTTCGAGTAAACAAATTTTCCTAATCTTTCTGTTCAAGCGCCATCTAC | 0.841 RPM ratio (pull-down/input) |
| GATGATTGTTCTCCCAGCTGATGAATTTACGGAATCGAGTAAACAAATTTTCCTAATCTTTCTGTTCAAGCGCCATCTAC | 1.29 RPM ratio (pull-down/input) |
| GATGATTGTTCTCCCAGCTGATGAATTATGAGAGTCGAGTAAACAAATTTTCCTAATCTTTCTGTTCAAGCGCCATCTAC | 0.846 RPM ratio (pull-down/input) |
| GATGATTGTTCTCCCAGCTGATGAATTCTGTAGTTCGAGTAAACAAATTTTCCTAATCTTTCTGTTCAAGCGCCATCTAC | 1.05 RPM ratio (pull-down/input) |
| GATGATTGTTCTCCCAGCTGATGAATTCCACACTTCGAGTAAACAAATTTTCCTAATCTTTCTGTTCAAGCGCCATCTAC | 0.821 RPM ratio (pull-down/input) |
| GATGATTGTTCTCCCAGCTGATGAATTATAAACCTCGAGTAAACAAATTTTCCTAATCTTTCTGTTCAAGCGCCATCTAC | 1.11 RPM ratio (pull-down/input) |
| GATGATTGTTCTCCCAGCTGATGAATTTTGGGACTCGAGTAAACAAATTTTCCTAATCTTTCTGTTCAAGCGCCATCTAC | 0.815 RPM ratio (pull-down/input) |
| GATGATTGTTCTCCCAGCTGATGAATTTCCAACTTCGAGTAAACAAATTTTCCTAATCTTTCTGTTCAAGCGCCATCTAC | 0.831 RPM ratio (pull-down/input) |
| GATGATTGTTCTCCCAGCTGATGAATTGAACTTGTCGAGTAAACAAATTTTCCTAATCTTTCTGTTCAAGCGCCATCTAC | 0.829 RPM ratio (pull-down/input) |
| GATGATTGTTCTCCCAGCTGATGAATTGGTCCGGTCGAGTAAACAAATTTTCCTAATCTTTCTGTTCAAGCGCCATCTAC | 0.81 RPM ratio (pull-down/input) |
| GATGATTGTTCTCCCAGCTGATGAATTGCTTCATTCGAGTAAACAAATTTTCCTAATCTTTCTGTTCAAGCGCCATCTAC | 1.05 RPM ratio (pull-down/input) |
| GATGATTGTTCTCCCAGCTGATGAATTCTTGAGTTCGAGTAAACAAATTTTCCTAATCTTTCTGTTCAAGCGCCATCTAC | 0.836 RPM ratio (pull-down/input) |
| GATGATTGTTCTCCCAGCTGATGAATTCTTGGGGTCGAGTAAACAAATTTTCCTAATCTTTCTGTTCAAGCGCCATCTAC | 0.791 RPM ratio (pull-down/input) |
| GATGATTGTTCTCCCAGCTGATGAATTTACGACCTCGAGTAAACAAATTTTCCTAATCTTTCTGTTCAAGCGCCATCTAC | 1.1 RPM ratio (pull-down/input) |
